Among all 420,000 compounds or so, about 64,000 (15%) were called active. The shares of active, inactive and inconclusive entries below differ from those in the screen. Calls follow the shape of the dose curve; as a rule, active = well fitted inhibition curve with a large enough effect; inconclusive = small, poorly fitted or top-dose-only effect; inactive = flat fitted curve, though single readings scatter. Potencies of inconclusive entries are left out as doubtful fits.
Test: qHTS for Inhibitors of human tyrosyl-DNA phosphodiesterase 1 (TDP1): qHTS in cells in absence of CPT; also: nearly all actives have a fitted effect of over 55% in size
Settings: DT40 Tdp1-/- hTDP1 cells, no CPT, ATP luminescence, 48 h; activity change, negative = growth inhibition: at 46.2 µM (top of the series) unless noted
In short: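 Chicken DT40 Tdp1-/- cells stably complemented with human TDP1 were seeded at 400 cells/well with DMSO in place of 20 nM camptothecin. After compound pinning, cells grew at least 48 hr at 37 °C; viability read by CellTiter-Glo luminescence.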
% is scaled to controls: 0 for no effect and ±100 for the full control effect; potency is read from the fitted curve at half-maximal effect; tags tell the direction and shape of the fitted curve.

Row | SMILES | Potency | activity change, negative = growth inhibition
1 | COc1ccccc1N1C(=O)CSC1=NC(=O)c1ccccc1 | inconclusive [inhibitor, partial curve] | –
2 | O=C(N/N=C/c1cc2ccccc2nc1Cl)/C(=C/c1cccs1)NC(=O)c1ccccc1 | inconclusive [inhibitor, single point] | –
3 | COc1ccc(CN2C(=O)C(CC(=O)NCCCCc3ccccc3)CC(C(=O)N3CCOCC3)=C2C)cc1 (centres undefined) | inconclusive [inhibitor, single point] | –
4 | C=CCN(CC=C)Cc1cc(=O)oc2cc(OC)ccc12 | inconclusive [inhibitor, single point] | –
5 | CCS(=O)(=O)N1Cc2ccccc2CC1C(=O)Nc1ccc(OC)cc1OC (centres undefined) | – | inactive: -20.6%
6 | Cc1ccc(C)c(NC(=O)c2cc(S(=O)(=O)N3CCCCC3)ccc2N2CCOCC2)c1 | inconclusive [inhibitor, single point] | –
7 | CCOC(=O)C1(C)C=C(Nc2ccc(Br)cc2)C(=O)N1c1ccccc1 (centres undefined) | – | inactive: -14.3%
8 | CCn1c(=NC(=O)c2ccc3c(c2)OCCO3)sc2c(C)ccc(OC)c21 | active: 23.1 µM | –
9 | CC1CN(Cc2cccn2-c2cccnc2)Cc2cc(Cl)ccc2O1 (centres undefined) | active: 18.4 µM | –
10 | OC(c1ccc(Cl)cc1)c1ncc(-c2ccc(Oc3ccccc3)cc2)[nH]1 (centres undefined) | active: 20.6 µM | –
11 | Cc1ccc(NC(=O)Nc2ccccc2)c(Br)c1 | inconclusive [inhibitor, single point] | –
12 | Cn1c(SCc2n[nH]c(=S)n2-c2ccccc2)nnc1-c1ccccc1 | – | inactive: 6.31%
13 | COc1ccccc1CNC(=O)c1ccc2nc(N3CCOCC3)sc2c1 | – | inactive: -25.9%
14 | Cc1cc(C)cc(NC(=O)COC(=O)c2cc(=O)[nH]c(=O)[nH]2)c1 | – | inactive: 13.5%
15 | CC(=O)N1CCC(C(=O)N2c3ccccc3N=C(c3ccc(C(F)(F)F)cc3)C2C(=O)NC2CCCC2)CC1 (centres undefined) | inconclusive [inhibitor, single point] | –
16 | CCN(CC)c1ccc(NC(=O)/C=C/c2cc(Br)ccc2OC)cc1 | inconclusive [inhibitor, single point] | –
17 | CC(=O)N1c2c(cc(Br)cc2S(=O)(=O)N2CCN(C(=O)c3ccco3)CC2)CC1C (centres undefined) | active: 18.4 µM | –
18 | Cc1ccc(C)c2[nH]c(=O)c(CN(Cc3ccco3)S(=O)(=O)c3ccc4c(c3)OCCO4)cc12 | inconclusive [inhibitor, single point] | –
19 | CCc1ccc(N(C(=O)CCC(=O)Nc2cc(C)on2)C(C(=O)NC(C)(C)C)c2ccc(OC)cc2)cc1 (centres undefined) | active: 20.6 µM | –
20 | CSc1ccc(CCNC(=O)C2CCCN(c3ncnc4c3nc3n4CCCCC3)C2)cc1 (centres undefined) | inconclusive [inhibitor, single point] | –
21 | Cc1ccc(C(=O)OCC(=O)N2CCC(C)CC2)cc1S(=O)(=O)N1CCOCC1 | – | inactive: -29%
22 | CN(c1cccc(NC(=O)c2ccc(CN3CCc4ccccc4C3)cc2)c1)S(C)(=O)=O | inconclusive [inhibitor, single point] | –

Row | SMILES | Potency | activity change, negative = growth inhibition
23 | CCC(CC)NC(=O)COC(=O)c1cc(Br)ccc1Cl | – | inactive: 5.18%
24 | COc1ccc(C(=O)CSc2nc3ccc([N+](=O)[O-])cc3[nH]2)cc1 | active: 16.4 µM | –
25 | COc1ccc(C(CCN2CCOCC2)c2c(OC)cc(OC)c3c(-c4ccccc4)cc(=O)oc23)cc1 (centres undefined) | active: 8.2 µM | –
26 | CC(C)(C)N(Cc1ccccc1)C(=O)COC(=O)c1ccc(Br)o1 | inconclusive [inhibitor, single point] | –
27 | CCOc1ccc2oc(C(=O)OCC(=O)N(CC(C)C)c3c(N)n(Cc4ccccc4)c(=O)[nH]c3=O)c(C)c2c1 | inconclusive [inhibitor, single point] | –
28 | CCN(C(=O)C(=O)Nc1ccc2nc3n(c(=O)c2c1)CCCCC3)c1ccc(F)cc1 | inconclusive [inhibitor, partial curve] | –
29 | Cc1nn(-c2ccccc2)nc1C(=O)Oc1cc(C(F)(F)F)nn1-c1ccccc1 | – | inactive: -8.25%
30 | CCN(c1ccccc1)C(CNS(=O)(=O)c1ccccc1)c1ccccc1 (centres undefined) | inconclusive [inhibitor, single point] | –
31 | Cc1ccc(-c2nnc(Nc3ccc(Br)cc3)c3ccccc23)cc1S(=O)(=O)N1CCN(C)CC1 | active: 18.4 µM | –
32 | Cc1nn(C(C)C(=O)NC2CCCCC2)c(=O)c2c1sc1ccccc12 (centres undefined) | inconclusive [inhibitor, single point] | –
33 | CO/N=C/C(=N\Nc1ccc(OC)cc1)C(=O)c1ccc(OC)cc1 | inconclusive [inhibitor, single point] | –
34 | NCCCn1c(C(=O)c2cc(Cl)c(N)c(Cl)c2)c2ccc([N+](=O)[O-])cc2[n+]1[O-] | active: 0.517 µM | –
35 | COc1ccc(-c2nnc(SC(C)C(=O)Nc3cccc(Cl)c3)o2)cc1 (centres undefined) | inconclusive [inhibitor, single point] | –
36 | OC[C@@H]1CN(Cc2ccc3c(c2)OCO3)C[C@H](n2cnc3c(N4CCN(c5ccccc5)CC4)ncnc32)O1 | inconclusive [inhibitor, single point] | –
37 | COc1ccc(CCNC(=O)Cc2c(C)c3c(cc(C)c4c(C)coc43)oc2=O)cc1OC | active: 20.6 µM | –
38 | NC(=O)c1cccc2c1-c1ccccc1/C2=N/NC(N)=S | inconclusive [inhibitor, single point] | –
39 | CCCCC(CC)CNC(=O)C(Cc1ccccc1)NS(=O)(=O)c1ccc2c(c1)CCC(=O)N2 (centres undefined) | – | inactive: -25.9%
40 | CCOC(=O)c1c(C)[nH]c(C(=O)OCc2ccccc2F)c1C | inconclusive [inhibitor, partial curve] | –
41 | O=C(NC(=S)Nc1ccccc1F)c1ccc(Br)o1 | – | inactive: -27.3%
42 | COc1ccc(OC)c(C2NC(=O)NC(C)=C2C(=O)Nc2cc(C)cc(C)c2)c1 (centres undefined) | – | inactive: -11.2%
43 | COc1cc(NC(=O)C2COc3ccccc3O2)c(OC)cc1Cl (centres undefined) | inconclusive [inhibitor, partial curve, poor fit] | –
44 | CCOC(=O)CNC(=O)c1cc2c(=O)[nH]c3ccc(C)cc3c2s1 | – | inactive: 10.3%
